Hit rate of the full screen: of about 150,000 compounds, about 540 (0.36%) showed an effect of 50% or more. Some of the results follow.

The subject of the experiment is Plasmodium falciparum. Briefly: Primary screen in NF54 nanoGlo assay, in single point, at 2uM, 72h; a lower Z score goes with more inhibition. It counts as functional, Erythrocyte. Particulars: timepoint 72 hour.
In general, % Inhibition refers to the relative decrease from the control value, in per cent. With `O=S1(=O)CCC(c2nnc(N3CCCC3C3CCC3)n2CC2CCOC2)C1` (stereo not drawn), the “% Inhibition” value was -7% and the Z score was found to be 1.04.

Turning to `CCc1cnc(NCc2c[nH]nc2-c2cccnc2)s1`, the “% Inhibition” value is listed as 18% and the Z score is listed as -1.57.

Take `CN1C(=O)C2(CCN(c3nc(C(N)=O)cs3)CC2)c2ccccc21`: the “% Inhibition” value stood at 14% and the Z score is -1.86.

For `O=C(N[C@H]1CCN(c2ccc(F)cc2F)C1)c1cccnc1`, the “% Inhibition” value is -4% and the Z score worked out at 0.58.

Turning to `CCC(c1cccs1)N1C(=O)[C@H]2CN(S(=O)(=O)c3ccc(F)cc3F)C[C@H]2C1=O` (stereo partly drawn), the “% Inhibition” value is recorded as -7% and the Z score is recorded as 0.81.

Regarding `CC(=O)c1ccc(F)c(-c2cc(C)cc3c2OC(CNC(=O)C2CCCO2)C3)c1` (stereo not drawn), the “% Inhibition” value is reported as -3% and the Z score amounted to 0.44.

As to `Cc1ccc(C(=O)NC[C@H]2Cc3ccccc3O2)cn1`, the “% Inhibition” value is recorded as -14% and the Z score stood at 1.29.

Turning to `COc1ccc(C2NC(C(=O)O)Cc3nc[nH]c32)cc1COc1ccccc1F` (stereo not drawn), the “% Inhibition” value is -11% and the Z score worked out at 1.39.

As for `COCc1cccc(-c2ncnn2Cc2cccc(OC)c2)n1`, the “% Inhibition” value came to 6% and the Z score was -0.82.

As to `Cc1ccc(-c2noc(N3CCOC4(CCOCC4)C3)n2)cc1`, the “% Inhibition” value was 1% and the Z score is -0.12.

With `O=C(c1ccccc1NS(=O)(=O)c1ccc(Cl)s1)N1CCN(C(c2ccccc2)c2ccccc2)CC1`, the “% Inhibition” value is -6% and the Z score is reported as 1.

Consider `O=S(=O)(CC1(F)CC1)NCCc1ccc2c(c1)OCCO2`, for which the “% Inhibition” value is -13% and the Z score amounted to 1.69.

Regarding `COC(=O)CC(C)(C)CC(=O)N1CC(C)C(C)C1` (stereo not drawn), the “% Inhibition” value is 3% and the Z score is reported as -0.53.

Regarding `COC(=O)c1noc2c(Cl)cccc12`, the “% Inhibition” value is reported as -31% and the Z score was determined as 3.09.

For the compound `Cc1nn(Cc2cccc3c2OCCO3)c(N)c1C#N`, the “% Inhibition” value is on record as -5% and the Z score turned out to be 0.84.

`CN(C(=O)C(=O)Nc1ccnn1C)C1CCCC1Cc1ccccc1` (stereo not drawn): the “% Inhibition” value is 0% and the Z score was -0.05.

For the compound `O=C(N[C@@H]1COCC[C@@H]1OCC1CCC1)C1CCOCC1`, the “% Inhibition” value was -16% and the Z score stood at 1.47.

For `COc1ccc(S(=O)(=O)NCc2cc(C3CC3)ncn2)cc1`, the “% Inhibition” value was found to be 8% and the Z score is -1.09.

As for `CCc1nc(N2CCCN(C(=O)c3ccc(OC)cc3)CC2)c2cnn(-c3ccc(C)cc3)c2n1`, the “% Inhibition” value is given as -9% and the Z score was found to be 1.43.

In the case of `CC[C@@]1(C)CC(=O)N(Cc2ncnn2C)C1=O`, the “% Inhibition” value was -14% and the Z score worked out at 1.3.

On to `Cn1cc(C(=O)N2CCc3nc(NC(=O)c4ccoc4)sc3C2)nn1`, for which the “% Inhibition” value is given as 2% and the Z score is on record as -0.33.

Regarding `O=C(NCCc1c[nH]cn1)c1cccc(-n2nnc3cccnc32)c1`, the “% Inhibition” value is reported as -12% and the Z score is on record as 2.41.

As to `CCn1nc(CN2CCC[C@H](NC(=O)c3cccc(OC)c3OC)C2)c2c1CCOC2`, the “% Inhibition” value is listed as -10% and the Z score is given as 0.88.

For `Cc1ccc(C(N)=O)cc1NC(=O)C(F)(F)C(F)F`, the “% Inhibition” value is -2% and the Z score is on record as 0.29.

Regarding `OCc1ccc(-c2nccn2Cc2ccncn2)o1`, the “% Inhibition” value stood at 2% and the Z score is listed as -0.33.

For the compound `CCNc1ncc(CN2CCC(C(=O)NCc3ccccc3)CC2)cn1`, the “% Inhibition” value was -28% and the Z score stood at 2.51.

As for `O=C(Cn1ncc(=O)c2ccccc21)N1CCC[C@H]1c1ccncc1`, the “% Inhibition” value is on record as -2% and the Z score turned out to be 0.2.

Take `O=S1(=O)CCC(Nc2nnc(-c3ccccc3)s2)CC1`: the “% Inhibition” value is recorded as -8% and the Z score amounted to 1.14.

For the compound `Cc1cnn(CCN2CCC[C@H](n3cc(CO)nn3)C2)c1`, the “% Inhibition” value was 3% and the Z score is listed as -0.56.

Turning to `C=CCN(CCO)S(=O)(=O)c1c(F)cccc1Cl`, the “% Inhibition” value is on record as -9% and the Z score was found to be 1.13.

Take `CC(C)CCn1cc(-c2cc(CO)ncc2F)cn1`: the “% Inhibition” value is listed as -6% and the Z score worked out at 1.04.

Regarding `CO[C@@H](CS(=O)(=O)Nc1nn2c(=O)cc(C)nc2[nH]1)c1ccc(F)cc1`, the “% Inhibition” value is -12% and the Z score came to 2.16.

For the compound `Cc1ccccc1NC(=O)N1CCN(C(=O)c2nonc2N)CC1`, the “% Inhibition” value was determined as 36% and the Z score was -4.83.

Turning to `O=C1CC[C@H](CCNCc2cc3c(cc2Cl)OCO3)N1Cc1cccc2ccccc12`, the “% Inhibition” value is reported as -9% and the Z score is 1.56.

In the case of `COc1cc(Cl)cc(C(=O)N2CCC(n3cn[nH]c3=O)CC2)c1`, the “% Inhibition” value is reported as 12% and the Z score is -1.71.

On to `Cn1ncnc1NC(=O)N1CCC[C@]1(C)Cc1ccc(Cl)s1`, for which the “% Inhibition” value came out at 4% and the Z score is on record as -0.55.

Regarding `CCc1ccc(-c2nc(C(C)(C)OC)no2)cc1S(C)(=O)=O`, the “% Inhibition” value is 1% and the Z score was -0.15.

On to `CCO[C@@H](C)c1nccn1CC1CCC1`, for which the “% Inhibition” value is on record as -1% and the Z score came to 0.09.

Regarding `COc1cc(Nc2c(C(=O)N3CCOCC3)cnc3nc(C)ccc23)cc(OC)c1OC`, the “% Inhibition” value is on record as -10% and the Z score stood at 1.59.

Take `Cc1ccc(C)c(CN2C(=O)N[C@@]3(CCCCc4ccccc43)C2=O)c1`: the “% Inhibition” value is on record as -6% and the Z score is 1.37.

Regarding `CCC(=O)N1CCN(c2nc(C3CC3)nc(COC)c2Cc2cccc(C)c2)CC1`, the “% Inhibition” value is reported as -7% and the Z score is listed as 0.62.

On to `CC(C)C1CC(N2CCCC2)CN1C(=O)CC1CCCO1` (stereo not drawn), for which the “% Inhibition” value came to 0% and the Z score was 0.06.

Turning to `COC1CCCC1C1COCCN1Cc1cccc(C(=O)O)c1` (stereo not drawn), the “% Inhibition” value is 1% and the Z score was -0.27.

As to `COc1cc(-c2noc([C@H]3CCN(C)[C@@H](C)C3)n2)ncn1`, the “% Inhibition” value was 4% and the Z score is listed as -0.71.

(Values after ChEMBL document CHEMBL4888484, “Replenishing the malaria drug discovery pipeline: Screening and hit evaluation of the MMV Hit Generation Library 1 (HGL1) against asexual blood stage Plasmodium falciparum ,using a nano luciferase reporter read-out” (2022).)
